According to paper PMC6451091:
The list shows a part of the results. For part of these data: At the low end of the ranking the order means little. For part of these data: Measured with an extract: partners may take part in the binding.

Target: PU.1 (IVT) (UniProt P17947)
Test: protein-binding microarray (PBM)
Details: 20 mM HEPES pH 7.9, 100 mM NaCl, 1 mM DTT, 0.2 mg/mL BSA, 0.02% Triton X-100, 2% milk, 0.4 mg/mL salmon testes DNA; 1 h; temperature not stated; high values mean tight binding; double strand, one strand shown; sequences stand for … in GCCTAGCAC…GTGCTAGGTCTTGATTCGCTTGACGCTGCTG

| Sequence | binding signal |
| --- | --- |
| AAAAAAAGGAACTGTGCCCC | 4.28 z-score |
| AGGGAGGGGAAGTGAATGCC | 3.73 z-score |
| TTTGGGAGGAAGTGAAACCA | 3.56 z-score |
| TAAAGAAGGAAGTGAAAATT | 4.33 z-score |
| TTTATGAGGAAGTGTCATTT | 5.74 z-score |
| CAGAGGAGGAAGTGGGTAGA | 4.73 z-score |
| AGGAAGGGGAAGTGGAGATT | 5.33 z-score |
| CAAATGAGGAACTGATACGG | 5.99 z-score |
| GATAAGAGGAAGTCATCTGT | 6.17 z-score |
| GTGCAGGGGAAGTGGGAAGG | 3.15 z-score |
| TGAAAGAGGAAGTGCATCCA | 7.57 z-score |
| TGCAAGGGGAAGTGGTTTTG | 5.08 z-score |
| AGAAGGGGGAAGTGGAATCC | 4.98 z-score |
| AAAAGAAGGAAGTGGTTTAT | 6.15 z-score |
| GGAAAAGGGAAGTGGGAGGA | 6.11 z-score |
| TAAAAGAGGAAGTCTCTTTT | 8.23 z-score |
| AAATAGAGGAAGTGCATTTT | 7.69 z-score |
| GGGAAGAGGAAGTGCTCCTG | 6.28 z-score |
| ACAAAAAGGAAATGTGCCCC | 1.02 z-score |
| AAAAAAAGGAACTGGCTAGG | 4.38 z-score |

| Sequence | binding signal |
| --- | --- |
| CTGAAGGGGAAGTAAGGGAG | 4.79 z-score |
| GGAAAGTGGAACTGCTCGCT | 2.19 z-score |
| AGGAAGAGGAAGTGGTTCTT | 6.99 z-score |
| CAAAAAGGGAGGTGGATGCT | 0.0907 z-score |
| CGAAAGGGGAAGTGCTCAAC | 7 z-score |
| TGAAAGAGGAAGTAGAAAAA | 7.5 z-score |
| CAGATGAGGAAGTGATGCTT | 5.97 z-score |
| GGCTGGAGGAAGTGGGGACG | 2.48 z-score |
| ATGAGGAGGAAGTGAGGGTC | 3.71 z-score |
| AAAATGAGGAAATGTGACAT | 5.19 z-score |
| CATAAAAGGAAGTGTGTCCT | 3.21 z-score |
| TAAAACAGGAAGTGGTGTTC | 7.81 z-score |
| TAAAGGAGGAAGTAAGGGAG | 5.91 z-score |
| TAAATGAGGAACTGATGCGG | 6.09 z-score |
| CAAATGAGGCACTGATGCGG | -0.204 z-score |
| AGAAGAAGGAAGTGAGAAAG | 4.17 z-score |
| GCTAAGAGGAAGTGCTATCT | 5.81 z-score |
| GCTAAAGGGAAGTGAGTCAG | 3.79 z-score |
| GAAAACAGGAAGTGCACACG | 7.67 z-score |
| AGAAACAGGAAGTCCCAAAC | 7.1 z-score |

Target: PU.1 (endogenous, THP-1 nuclear extract) (UniProt P17947)
Test: nuclear extract protein-binding microarray (nextPBM)
Details: 20 mM HEPES pH 7.9, 100 mM NaCl, 1 mM DTT, 0.2 mg/mL BSA, 0.02% Triton X-100, 2% milk, 0.4 mg/mL salmon testes DNA; 1 h; temperature not stated; high values mean tight binding; double strand, one strand shown; sequences stand for … in GCCTAGCAC…GTGCTAGGTCTTGATTCGCTTGACGCTGCTG

| Sequence | binding signal |
| --- | --- |
| AAAAAAAGGAACTGTGCCCC | 4.24 z-score |
| AGGGAGGGGAAGTGAATGCC | 3.7 z-score |
| TTTGGGAGGAAGTGAAACCA | 6.2 z-score |
| TAAAGAAGGAAGTGAAAATT | 4.72 z-score |
| TTTATGAGGAAGTGTCATTT | 6.06 z-score |
| CAGAGGAGGAAGTGGGTAGA | 4.72 z-score |
| AGGAAGGGGAAGTGGAGATT | 5.95 z-score |
| CAAATGAGGAACTGATACGG | 6.56 z-score |
| GATAAGAGGAAGTCATCTGT | 6.49 z-score |
| GTGCAGGGGAAGTGGGAAGG | 3.06 z-score |
| TGAAAGAGGAAGTGCATCCA | 7.12 z-score |
| TGCAAGGGGAAGTGGTTTTG | 5.24 z-score |
| AGAAGGGGGAAGTGGAATCC | 5.62 z-score |
| AAAAGAAGGAAGTGGTTTAT | 6.22 z-score |
| GGAAAAGGGAAGTGGGAGGA | 6.59 z-score |
| TAAAAGAGGAAGTCTCTTTT | 7.48 z-score |
| AAATAGAGGAAGTGCATTTT | 7.35 z-score |
| GGGAAGAGGAAGTGCTCCTG | 6.72 z-score |
| ACAAAAAGGAAATGTGCCCC | 0.719 z-score |
| AAAAAAAGGAACTGGCTAGG | 4.29 z-score |

| Sequence | binding signal |
| --- | --- |
| CTGAAGGGGAAGTAAGGGAG | 5.28 z-score |
| GGAAAGTGGAACTGCTCGCT | 1.97 z-score |
| AGGAAGAGGAAGTGGTTCTT | 6.76 z-score |
| CAAAAAGGGAGGTGGATGCT | -0.129 z-score |
| CGAAAGGGGAAGTGCTCAAC | 7.05 z-score |
| TGAAAGAGGAAGTAGAAAAA | 7.26 z-score |
| CAGATGAGGAAGTGATGCTT | 6.54 z-score |
| GGCTGGAGGAAGTGGGGACG | 3.05 z-score |
| ATGAGGAGGAAGTGAGGGTC | 4.18 z-score |
| AAAATGAGGAAATGTGACAT | 4.29 z-score |
| CATAAAAGGAAGTGTGTCCT | 3 z-score |
| TAAAACAGGAAGTGGTGTTC | 7.33 z-score |
| TAAAGGAGGAAGTAAGGGAG | 6.34 z-score |
| TAAATGAGGAACTGATGCGG | 6.21 z-score |
| CAAATGAGGCACTGATGCGG | 0.227 z-score |
| AGAAGAAGGAAGTGAGAAAG | 4.23 z-score |
| GCTAAGAGGAAGTGCTATCT | 6.24 z-score |
| GCTAAAGGGAAGTGAGTCAG | 3.76 z-score |
| GAAAACAGGAAGTGCACACG | 7.34 z-score |
| AGAAACAGGAAGTCCCAAAC | 6.99 z-score |

Target: T1, FLI1 (endogenous, THP-1 nuclear extract) (UniProt Q01543)
T1 sequence: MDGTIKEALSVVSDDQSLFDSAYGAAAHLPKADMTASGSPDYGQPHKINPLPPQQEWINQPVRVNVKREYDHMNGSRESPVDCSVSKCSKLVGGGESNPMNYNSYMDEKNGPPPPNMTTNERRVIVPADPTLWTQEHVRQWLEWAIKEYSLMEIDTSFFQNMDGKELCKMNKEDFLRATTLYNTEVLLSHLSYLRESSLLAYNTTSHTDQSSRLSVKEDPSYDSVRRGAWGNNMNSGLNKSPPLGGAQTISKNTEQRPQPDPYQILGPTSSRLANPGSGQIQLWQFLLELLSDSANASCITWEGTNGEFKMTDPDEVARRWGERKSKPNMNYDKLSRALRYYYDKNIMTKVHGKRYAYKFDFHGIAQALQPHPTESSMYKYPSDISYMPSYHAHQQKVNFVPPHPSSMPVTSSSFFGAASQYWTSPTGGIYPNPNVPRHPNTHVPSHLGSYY
Test: as above
Details: 20 mM HEPES pH 7.9, 100 mM NaCl, 1 mM DTT, 0.2 mg/mL BSA, 0.02% Triton X-100, 2% milk, 0.4 mg/mL salmon testes DNA; 1 h; temperature not stated; high values mean tight binding; double strand, one strand shown; sequences stand for … in GCCTAGCAC…GTGCTAGGTCTTGATTCGCTTGACGCTGCTG

| Sequence | binding signal |
| --- | --- |
| AAAAAAAGGAACTGTGCCCC | 1.25 z-score |
| AGGGAGGGGAAGTGAATGCC | 2.09 z-score |
| TTTGGGAGGAAGTGAAACCA | 3.51 z-score |
| TAAAGAAGGAAGTGAAAATT | 2.23 z-score |
| TTTATGAGGAAGTGTCATTT | 2.95 z-score |
| CAGAGGAGGAAGTGGGTAGA | 2.82 z-score |
| AGGAAGGGGAAGTGGAGATT | 3 z-score |
| CAAATGAGGAACTGATACGG | 1.83 z-score |
| GATAAGAGGAAGTCATCTGT | 3.17 z-score |
| GTGCAGGGGAAGTGGGAAGG | 2.13 z-score |
| TGAAAGAGGAAGTGCATCCA | 3.68 z-score |
| TGCAAGGGGAAGTGGTTTTG | 2.5 z-score |
| AGAAGGGGGAAGTGGAATCC | 2.12 z-score |
| AAAAGAAGGAAGTGGTTTAT | 3.22 z-score |
| GGAAAAGGGAAGTGGGAGGA | 2.92 z-score |
| TAAAAGAGGAAGTCTCTTTT | 3.87 z-score |
| AAATAGAGGAAGTGCATTTT | 3.46 z-score |
| GGGAAGAGGAAGTGCTCCTG | 3.62 z-score |
| ACAAAAAGGAAATGTGCCCC | 1.68 z-score |
| AAAAAAAGGAACTGGCTAGG | 1.18 z-score |

| Sequence | binding signal |
| --- | --- |
| CTGAAGGGGAAGTAAGGGAG | 2.12 z-score |
| GGAAAGTGGAACTGCTCGCT | 0.698 z-score |
| AGGAAGAGGAAGTGGTTCTT | 4.06 z-score |
| CAAAAAGGGAGGTGGATGCT | 0.214 z-score |
| CGAAAGGGGAAGTGCTCAAC | 3.44 z-score |
| TGAAAGAGGAAGTAGAAAAA | 3.66 z-score |
| CAGATGAGGAAGTGATGCTT | 2.45 z-score |
| GGCTGGAGGAAGTGGGGACG | 2.11 z-score |
| ATGAGGAGGAAGTGAGGGTC | 2.66 z-score |
| AAAATGAGGAAATGTGACAT | 2.02 z-score |
| CATAAAAGGAAGTGTGTCCT | 2.21 z-score |
| TAAAACAGGAAGTGGTGTTC | 5.45 z-score |
| TAAAGGAGGAAGTAAGGGAG | 2.86 z-score |
| TAAATGAGGAACTGATGCGG | 1.29 z-score |
| CAAATGAGGCACTGATGCGG | -0.443 z-score |
| AGAAGAAGGAAGTGAGAAAG | 2.28 z-score |
| GCTAAGAGGAAGTGCTATCT | 3.26 z-score |
| GCTAAAGGGAAGTGAGTCAG | 2 z-score |
| GAAAACAGGAAGTGCACACG | 5.16 z-score |
| AGAAACAGGAAGTCCCAAAC | 4.81 z-score |
